Measured values as given in PubChem BioAssay AID485313 (National Center for Advancing Translational Sciences (NCATS), 2010).
Hit rate of the full screen: of about 320,000 compounds, about 7,600 (2.4%) were called active. This list was built around the results that the source calls inconclusive (neither active nor inactive); the mix of calls is not that of the screen. Calls come from the whole dose curve; as a rule, active = well fitted activation curve with a large enough effect; inconclusive = small, poorly fitted or top-dose-only effect; inactive = no such curve, though single readings can be large or run the other way. No potency is given beside an inconclusive call; the fits are too rough.

assay: qHTS Assay for NPC1 Promoter Activators; details: Huh7 NPC1 promoter luciferase reporter, 24 h; series mostly up to 9.22 µM; activation: at the top concentration; note: nearly all actives have a fitted effect of over 60% in size;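 for activation: reporter is driven by a mutant NPC1 promoter; % of control where 0% means no effect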
Summary of the method: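 Stably transfected Huh7 (NPC1 promoter→luciferase), 1500 cells/well in Opti-MEM + 10% FBS, 2 h settle, then compound 24 h at 37 °C. Luminescence after 10 min with Amplite reagent.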
Potency is the fitted concentration of half-maximal effect; tags give direction and shape of the fitted curve.

Row | SMILES | activation | Potency
1 | CCCCc1nc2cc(C(=O)NC3CCOC(C)(C)C3)ccc2o1 (configuration not stated) | inactive: -0.422% | 
2 | O=C(c1ccccc1)c1cnc(-c2ccc(Cl)cc2)s1 |  | active: 0.355 µM
3 | Cc1cc2oc(=O)cc(CN(C)Cc3ccccc3F)c2cc1Cl |  | inconclusive [activator, partial curve]
4 | Cc1ccc(N(CC(=O)NCC2CCCO2)S(C)(=O)=O)cc1Cl (configuration not stated) | inactive: 1.21% | 
5 | CC(=O)Nc1ccc(C(=O)CSc2nnnn2C(C)C)cc1 |  | inconclusive [activator, partial curve]
6 | CC1(C)CCC(=O)N2CC[C@H]3C[C@H](OC(=O)Nc4ccccc4)C[C@@H]1[C@H]32 |  | inconclusive [activator, partial curve]
7 | Cn1c(=O)c2c(ncn2CC(=O)OCC(=O)Nc2ccc(F)cc2F)n(C)c1=O | inactive: -4.56% | 
8 | CCN(CC(=O)Nc1ccccc1OC)CC(=O)Nc1ccccc1-c1ccccc1 | inactive: -26.5% | 
9 | CC(=O)Nc1nc2c(C)cc(NC(=O)C3CCCCC3)cc2s1 |  | active: 2.24 µM
10 | COc1cccc(NC(=O)Nc2ccc(Br)cn2)c1 |  | inconclusive [activator, single point]
11 | Cc1ccc(C(=O)N/N=C2\CCc3ccccc32)c(C)c1 |  | inconclusive [activator, partial curve]
12 | CCOc1cc(C2NN=C(c3ccc(C)cc3)S2)ccc1O (configuration not stated) |  | active: 3.16 µM
13 | COc1ccc(NC(=S)c2ccccc2)cc1 |  | inconclusive [activator, single point]
14 | Nc1c(-c2ccccc2)n[nH]c1-c1ccccc1 |  | active: 2.82 µM
15 | Fc1ccccc1NC(=S)N/N=C/c1ccccc1Br |  | inconclusive [activator, single point]
16 | COc1ccc(NC(=O)c2cnc3sccn3c2=O)cc1 |  | inconclusive [activator, single point]
17 | CCCN1CCN(C(=O)C2CCN(c3ncnc4c3nc3n4CCCCC3)CC2)CC1 | inactive: -1.85% | 
18 | Cc1ccc(OCC(=O)N2CCC(C)CC2)c([N+](=O)[O-])n1 | inactive: 1.12% | 
19 | CCOC(=O)c1ccc(N2C(=O)c3n[nH]c(C)c3C2c2ccco2)cc1 (configuration not stated) |  | inconclusive [activator, single point]
20 | NC(=O)C1CCN(C(=S)c2ccc(-c3ccc(Br)cc3)o2)CC1 |  | inconclusive [activator, partial curve]
21 | O=C(CCCN1C(=O)/C(=C\c2cccs2)SC1=S)Nc1ccc(C(=O)O)cc1 | inactive: -1.8% | 
22 | Clc1ccccc1CSc1nnc(-c2ccncc2)o1 |  | inconclusive [activator, single point]
23 | CCOc1ccc2nc(N3CCCC(C(=O)NCCCN4C(C)CCCC4C)C3)sc2c1 (configuration not stated) |  | inconclusive [activator, single point]
24 | Cc1ccc(C(=O)Nc2nnc(-c3cccs3)s2)cc1C |  | active: 4.47 µM
25 | O=C(N/N=C/c1ccc(C(F)(F)F)cc1)c1ccc(O)cc1 | inactive: 15.7% | 
26 | Cc1nc2c3cnn(-c4ccc(C)c(C)c4)c3ncn2n1 |  | active: 2 µM

Row | SMILES | activation | Potency
27 | Clc1ccc(-c2cc(-c3ccccc3)on2)cc1 |  | active: 1.41 µM
28 | Cn1c(=O)c(C(=O)NCc2ccc(F)cc2)c(O)c2ccccc21 | inactive: -1.63% | 
29 | CNc1cc([N+](=O)[O-])ccc1N/C=C/C(=O)c1ccc2c(c1)OCO2 | inactive: 22.2% | 
30 | O=C(Cn1c(=S)nc2ccccn21)N1CCc2ccccc2C1 |  | inconclusive [activator, partial curve]
31 | O=C(OCC(=O)N1CCCC1)c1cccs1 |  | inconclusive [activator, partial curve]
32 | O=C(/C=C/Nc1ccc(Nc2ccccc2)cc1)c1cccs1 |  | active: 3.98 µM
33 | Cc1c(N=C2NN=C(c3ccc(Cl)cc3)CS2)c(=O)n(-c2ccccc2)n1C | inactive: -1.74% | 
34 | Cc1csc(C(C#N)C(=O)c2cc3ccccc3o2)n1 (configuration not stated) |  | active: 2.82 µM
35 | c1cncc(CSc2ccc(-c3ccc4c(c3)OCO4)nn2)c1 |  | active: 3.16 µM
36 | C/C(=N\NC(=O)c1ccc(CN2CCOCC2)cc1)c1ccc(NC(=O)c2ccccc2)cc1 |  | inconclusive [activator, partial curve]
37 | O=C(Nc1ccccc1O)c1c(O)c2c([nH]c1=O)CCCC2 |  | inconclusive [activator, single point]
38 | Cc1ccc(SCc2nc(-c3ccccc3)no2)cc1 | inactive: 2.08% | 
39 | CCc1ccc(NS(=O)(=O)c2ccc3[nH]cc(C(=O)NCC4CCCO4)c(=O)c3c2)cc1 (configuration not stated) |  | inconclusive [activator, single point]
40 | CC(=O)Nc1ccc2oc(-c3ccccc3Br)nc2c1 |  | active: 0.891 µM
41 | CCOc1cc(/C=C/c2cc(C(=O)O)c3ccccc3n2)ccc1OC |  | inconclusive [activator, partial curve]
42 | CCOc1cccc2cc(-c3nc4ccc(C(=O)O)cc4[nH]3)c(=O)oc12 |  | inconclusive [activator, full curve, poor fit]
43 | Fc1ccc(-n2nnc(-c3nccs3)n2)cc1 |  | active: 0.501 µM
44 | COc1ccccc1NC(=O)CCCN1C(=O)C2CC=CCC2C1=O (configuration not stated) | inactive: 1.46% | 
45 | O=C(Cc1ccccc1[N+](=O)[O-])OCC(=O)c1c[nH]c2ccccc12 |  | inconclusive [activator, partial curve]
46 | COc1ccc(OC)c(/C=N/N(C)c2ccccc2)c1 |  | inconclusive [activator, partial curve]
47 | Cc1nc(C)c(-c2csc(Nc3cccc(O)c3)n2)s1 |  | inconclusive [activator, single point]
48 | Cc1ccc(C(=O)Nc2sc3c(c2C#N)CCCCC3)cc1C |  | active: 2.24 µM
49 | CC(C)SCCCCOc1ccc2ccccc2c1 |  | inconclusive [activator, single point]
50 | Clc1cc(Cl)cc(Nc2ncnc(-n3cccc3)n2)c1 | inactive: 22.8% | 
51 | CC1(C)C=Cc2c(ccc3c2OC[C@H](c2ccc(O)cc2O)C3)O1 |  | inconclusive [activator, single point]
52 | COc1ccc(CNC(=O)C(=O)NCC2OCCN2S(=O)(=O)c2cccs2)cc1 (configuration not stated) | inactive: -6.66% | 
